Measured values: patent US10233201B2, “Class of HDAC inhibitors expands the renal progenitor cells population and improves the rate of recovery from acute kidney injury” (University of Pittsburgh—Of the Commonwealth System of …, priority 2012, dated 2019)

Tested on: conditionally-immortalized mouse podocyte cell line
Experiment: Podocyte cytotoxicity assay (Cell Titer-Blue)
Conditions: 72 hours, three experiments
Method: Podocytes are polarized epithelial cells located on the glomerular basement membrane that contribute to the integrity of the filtration barrier. For the purposes of these experiments, they function as an indicator of renal toxicity. Following 72 hours of treatment with each compound concentrations ranging from 30 μM to 3 nM, podocyte viability was assessed by measuring residual metabolic activity (FIG. 30). […] Of the 15 analogs tested, only two, TSA and apicidin, caused sufficient cytotoxicity to allow the calculation of an E50 value. […] Treatment with PTBA or each of 12 structural analogs never decreased podocyte viability below the 50% threshold, even when tested at 30 μM (FIG. 30). […]
The isolation and characterization of conditionally-immortalized mouse podocyte cell line have been previously described (Mundel, P. et al. Rearrangements of the cytoskeleton and cell contacts induce process formation during differentiation of conditionally immortalized mouse podocyte cell lines. Exp Cell Res 236, 248-258, (1997) and Schwartz, E. J. et al. Human immunodeficiency virus-1 induces loss of contact inhibition in podocytes. J Am Soc Nephrol 12, 1677-1684, (2001)). […] After incubation, cytotoxicity was analyzed using the Cell Titer-Blue Cell Viability Assay (Promega) per manufacturer's instructions. […] Fluorescence was read at 79 560Ex/590Em on a Gemini SpectramaxXS (Molecular Devices) plate reader. […]

Row | Compound | mean E50 (concentration where 50% of the exposed podocytes remained viable)
1 | CC(/C=C/C(=O)NO)=C\[C@@H](C)C(=O)c1ccc(N(C)C)cc1 [TSA, trichostatin A] | 96 nM
2 | CCC(=O)CCCCC[C@@H]1NC(=O)[C@H]2CCCCN2C(=O)[C@H]([C@@H](C)CC)NC(=O)[C@H](Cc2cn(OC)c3ccccc23)NC1=O [apicidin, reference compound] | 152 nM
